The campaign covered roughly 48,000 compounds. About 120 (0.25%) were called active. Another 4% or so got no clear call; they are omitted. Calls follow the shape of the dose curve; as a rule, active = well fitted activation curve with a large enough effect; inconclusive = small, poorly fitted or top-dose-only effect, or another doubt; inactive = no such curve, though single readings can be large or run the other way. This is one part of the list.
Experiment: Primary qHTS for Identification of Small Molecule Activators of Huntingtin-Antisense Promoter Activity; also: nearly all actives have a fitted effect of over 55% in size
Settings: HEK293 HTT-AS promoter firefly luciferase reporter, 24 h; series mostly up to 57.5 µM; activity change, positive = activation: at the top concentration
Procedure, shortened: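 Luminescence was read after Dual-Glo reagent and a 10 min room-temperature incubation. Values were normalized to vehicle (0% activity) and zero RLU (-100% activity). Reporter HEK293 cells had been exposed to compounds (up to 57.5 uM final) for 24 h.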

Activity change, positive = activation, inactive:
COc1ccc(OC)c(CNC(=O)CN2CC(C)Sc3ccccc32)c1 (centres undefined) -22.9%
COc1ccc(CNC(=O)c2cnc(N3CCOCC3)c3ccccc23)cc1 -16%
N#Cc1ccccc1NC(=O)CSc1nnc(N)s1 -16%
Cc1ccc(Cl)cc1N1CCN(C(=O)c2cc3c(-c4ccccc4F)nn(C)c3s2)CC1 -23.3%
CCc1ccc2oc(-c3cc(NC(=O)c4cc([N+](=O)[O-])ccc4N4CCOCC4)ccc3Cl)nc2c1 -0.991%
COc1ccc(NC(=O)CSc2nc(-c3ccco3)cc(C(F)(F)F)n2)cc1Cl -34.6%
COc1ccc(-n2ncc(C(=O)N3CCOCC3)c2C2CCN(C(=O)OC(C)(C)C)CC2)cc1 2.92%
CCCCS(=O)(=O)c1nc(-c2ccc(Br)cc2)cc(-c2ccccc2)c1C#N -43.8%
Cn1c(=O)c2sccc2n2c(CCCC(=O)NCc3ccccc3)nnc12 -10.5%
C[C@@H]1CC[C@@]2(OC1)O[C@H]1C[C@H]3[C@@H]4CC[C@H]5C[C@@H](O)CC[C@]5(C)[C@H]4CC(=O)[C@]3(C)[C@H]1[C@@H]2C -1.28% [at 6 µM, percent change from vehicle, -100% = no light]
Cc1cccc(NC(=O)CCc2c(C)nc3c(c(C)nn3C(C)(C)C)c2C)c1C -50.4%
O=C1COc2ccc(-c3cc(-c4ccccc4)c4c(n3)-c3cc(Cl)ccc3OC4)cc2N1 -6.75%
COc1cccc(Nc2c(C(N)=O)cnc3c(C)cc(S(=O)(=O)c4cccc(C(=O)N(C)C)c4)cc23)c1 -8.49% [at 25.1 µM, percent change from vehicle, -100% = no light]
CCN(C(=O)c1cn(CC)c(=O)c2cc(OC)c(OC)cc12)c1ccc(C)c(C)c1 -28%
CC1CCc2c(sc3nnn(CC(=O)Nc4ccc(Cl)cc4)c(=O)c23)C1 (centres undefined) -2.44%
Cc1ccc(N2CCN(S(=O)(=O)c3ccc4[nH]c5c(c4c3)CCCCC5)CC2)c(C)c1 -26%
O=C(Nc1cccc(-c2nc3cc(Cl)ccc3o2)c1)c1cc([N+](=O)[O-])ccc1N1CCOCC1 -1.33%
CCn1c(=O)c2cc(C(=O)Nc3cc(F)ccc3F)sc2c2ccccc21 7.46%
Cc1ccc(CN2CCC(CNc3ncnc4onc(-c5ccc(F)cc5)c34)CC2)cc1 -19.2%
CC(C)Oc1cc(Nc2nc(N[C@@H](C)c3ccc(F)cn3)ncc2Cl)[nH]n1 -14%
COc1ccc(CN2C(=O)c3oc4ccccc4c(=O)c3C2c2ccc(O)cc2)cc1 (centres undefined) -13.3%
CCOc1cccc(C(=O)Nc2ccc(S(=O)(=O)N(Cc3ccccc3)c3ccccc3)cc2)c1 -16.6%
COc1cccc(-c2nc(SCc3cc(=O)c4ccc(C)c(C)c4[nH]3)n[nH]2)c1 -28.9%
CCOc1ccc(NC(=O)Cn2cc(C(=O)c3ccc(CC)cc3)c(=O)c3cc(C)ccc32)cc1 -18.9%
Cc1ccc(Cc2nc3ccccc3nc2SCC(=O)NCCC(C)C)cc1 -9.29%
CCCN(C(=O)c1nn(-c2ccc(OC)cc2)c(=O)c2c1c1ccccc1n2C)c1ccc(CC)cc1 -11.1%
Cc1ccc(Cc2c(C)nc3nc(SCC(=O)NC(C)c4ccccc4)nn3c2C)cc1 (centres undefined) -17.5%
COc1ccc(S(=O)(=O)c2nnn(-c3cc(Cl)c(OC)cc3OC)c2C)cc1 -32%
O=C(CSc1nc2c([nH]c3ccccc32)c(=O)n1-c1ccc(F)cc1)NCc1ccccc1 -25.5%
C[C@]12C=CC(=O)C=C1CC[C@H]1[C@@H]3C[C@@H](O)[C@](O)(C(=O)CO)[C@@]3(C)C[C@H](O)[C@@]12F -4.82%
CCOCCCn1c(SCC(=O)Nc2ccc(C(C)C)cc2)nc2c(sc3ccccc32)c1=O -1.18%
Cn1c(=O)c2c(-c3ccccc3)n3c4ccccc4nc(-c4ccccc4)c3c2n(C)c1=O 5.89% [at 11.5 µM, percent change from vehicle, -100% = no light]
COC(=O)c1cc2occc2n1Cc1nc(-c2ccccc2F)oc1C 28.9%
COc1ccc(C(=O)NCC(c2cccnc2)N2CCc3ccccc3C2)cc1OC (centres undefined) -14.3%
Cc1ccc(Cl)cc1NC(=O)C(C)n1nnc2sc3c(c2c1=O)CCCC3 (centres undefined) -10.2%
Cc1cccc(N2CCN(S(=O)(=O)c3ccc4c(c3)CCCN4C(=O)C3CCC3)CC2C)c1 (centres undefined) -5.76%
COc1ccc(Cn2c(=O)[nH]c3cc(C(=O)N4CCN(c5cccc(Cl)c5)CC4)ccc3c2=O)cc1 -11.5%
Cn1c(=O)n(-c2ccc(Br)cc2F)c(=O)c2sc3ccccc3c21 0.458%
CCOc1ccc(NC(=O)CN2C(=O)C(c3ccccc3)=NC23CCC(C)CC3)cc1 (centres undefined) -27.8%
CCOC(=O)c1ccc(CN(Cc2ccc(F)cc2)S(=O)(=O)c2cc(C(=O)Nc3cccc(C(F)(F)F)c3)ccc2F)cc1 -3.5%
COc1cc2c(=O)c(S(=O)(=O)c3ccc(F)cc3)cn(Cc3ccc(Cl)cc3)c2cc1OC 10.9%
O=C(NC1CCCCCC1)c1ccc2c(c1)sc1nc(-c3ccc(F)cc3)cn12 -0.271%
CCCN1C(C(=O)c2ccccc2)=C(OC(=O)COc2ccccc2)c2ccccc2S1(=O)=O -37.4%
O=C(Nc1ccc(C(=O)OCc2cc(=O)n3c4c(sc3n2)CCCC4)cc1)c1ccccc1 -4.86%
CC1(C)O[C@@H]2C[C@H]3[C@@H]4CCC5=CC(=O)CC[C@]5(C)[C@@]4(F)[C@@H](O)C[C@]3(C)[C@]2(C(=O)CCl)O1 -12.6%
COc1ccc(C2C(C(N)=O)=C(C)Nc3nc(CCCO)nn32)c(OC)c1 (centres undefined) -6.08%
O=C(Cn1cnc2c(oc3ccccc32)c1=O)Nc1ccccc1C(F)(F)F 4.06%
COc1ccc(OC)c(NC(=O)CN(C)S(=O)(=O)c2ccc(C(=O)N3CCOCC3)s2)c1 -13.4%
COc1ccccc1NC(=O)Cn1c(=O)n(Cc2ccccc2)c(=O)c2sc3ccccc3c21 -7.67%
Cc1ccc(-c2nnc(Nc3cccc(Cl)c3)c3ccccc23)cc1S(=O)(=O)N1CCOCC1 19.6% [at 11.5 µM, percent change from vehicle, -100% = no light]
COc1ccc(C)cc1NC(=O)N(Cc1ccc(C)o1)C1CCN(C(C)=O)CC1 -13%
CC(C(C)N1CC(=O)NC(=O)C1)N1CC(=O)NC(=O)C1 (centres undefined) -32.8%
Cc1cc(C)c(NC(=O)CSc2nc3ccccc3nc2N2CCCCC2)c(C)c1 10.7%
CCCc1nc2sc3c(N4CCC(C)CC4)ncnc3c2c2c1CCCC2 -5.02%
CC(C)COc1cccc(C(=O)Nc2ccc(-c3nc4ncccc4o3)cc2)c1 4.88%
CCC(C(=O)Nc1cccc(Cl)c1C)n1nc(-c2ccc(C)cc2)ccc1=O (centres undefined) -29.6%
O=C(NCc1cccc(Cl)c1)c1cc2ccc3cccnc3c2[nH]1 7.19%
CC(C)COc1ccc(C(=O)Nc2ccc(S(=O)(=O)Nc3ncccn3)cc2)cc1 -6.59%
CCC(=O)Nc1cc(C)c(O)c(-c2nc3ncccc3o2)c1 4.2%
CC1CCN(C(=O)Cn2cc(SCC(=O)NCc3ccccc3Cl)c3ccccc32)CC1 -30.7%
O=C(Nc1cccc(Cl)c1)N1CCSc2ccccc21 -7.29%
CCN(CC)c1cc(C)c2cc(NC(=O)c3cccc(F)c3)ccc2n1 -3.5%
CSc1ccc(CCNC(=O)c2cnn(-c3ccccc3)c2-n2cccc2)cc1 -34.9%
Cc1cccc(NC(=O)c2cc(S(=O)(=O)N3CCc4ccccc43)ccc2F)c1C -32%
COc1ccc(OC)c(-c2cc(C(=O)NCCc3ccccc3)c3c(-c4ccc(C)cc4)[nH]nc3n2)c1 -28.5%
COCCCNC(=O)CS(=O)Cc1nc(-c2cccc(C)c2)oc1C (centres undefined) -1.34%
CCOc1ccccc1NC(=O)c1c(NC(=O)COc2ccccc2)sc2c1CCCCC2 -51.5%
CC(NC(=O)CCCC1=NS(=O)(=O)c2ccccc2N1)c1ccccc1 (centres undefined) -1.35%
CCCn1cc(S(=O)(=O)c2ccccc2)c(=O)c2cc(F)c(N3CCCCC3)cc21 -6.58%
Cc1ccc(N2C(=O)CSC23C(=O)N(CC(=O)NCCc2ccccc2)c2ccccc23)cc1C (centres undefined) -20.1%
COc1ccc(CCNC(=O)c2cnc3ccc(C)cn3c2=O)cc1 11.4%
CCCS(=O)(=O)c1c(S(=O)(=O)CCC)c2cc(CC)ccn2c1C(=O)c1ccc(OC)cc1 -16.6%
Cc1nc(NC(=O)N2CCC[C@@H]2C(N)=O)sc1-c1ccnc(C(C)(C)C(F)(F)F)c1 -7.17%
COc1cccc(Cn2nnc(C(=O)Nc3cc(C)ccc3C)c2N)c1 -29.9%
CCOc1ccc(NC(=O)N2CCC(C(N)=O)(N3CCCCC3)CC2)cc1 -0.0098%
Cc1ccn2c(=O)c(C(=O)NCCc3ccccc3)c(O)nc2c1 11.9%
O=C(CCc1nc(-c2cccs2)no1)Nc1ccccc1[N+](=O)[O-] -0.768%
O=C(Cn1c(=O)n(Cc2ccccc2)c(=O)c2sc3ccccc3c21)NCc1ccccc1Cl -10.5%
O=C(NC1CC(=O)N(c2cccc(F)c2)C1)c1ccc(S(=O)(=O)N2CCCC2)cc1 (centres undefined) -14.4%
Cc1ccc2nc(NC(=O)CSc3nccn3Cc3ccc(Cl)cc3)sc2c1 8.09%
Cc1ccc(CNC(=O)CCc2c(C)nc3c(c(C)nn3-c3ccccc3)c2C)cc1 -28.1%
COc1ccc(C(=O)c2oc3ccccc3c2NC(=O)COc2ccccc2)cc1 0.724%
CCN(CC)C(=O)/C(C#N)=C/c1cc(O)c(O)c([N+](=O)[O-])c1 -12.8%
COc1ccc(CCNC(=O)c2sc3nc4n(c(=O)c3c2C)CCCC4)cc1OC 6.85%
CCc1cccc(C)c1NC(=O)CC1Oc2ccc(C)cc2NC1=O (centres undefined) -3.19%
O=C(COc1ccc(Cl)cc1)OCc1cc(=O)n2nc(-c3cccs3)sc2n1 6.04%
CC(C)n1c(=N)c(C(=O)NCc2cccnc2)cc2c(=O)n3ccccc3nc21 4.6%
COc1ccc(Cl)cc1NS(=O)(=O)c1cc(Br)cc2c1N(C(=O)C1CC1)CC2 -36.7%
Cc1ccc(NC(=O)C2CCN(c3nc4ccccc4nc3C(F)(F)F)CC2)cc1F 9.72%

Source: PubChem BioAssay AID1508624 (National Center for Advancing Translational Sciences (NCATS), 2021)
